In the supplement of paper PMC10600219:
Where a name gives a salt, the structure may show the parent alone. Over roughly 2,800 compounds, “cell viability relative to vehicle” has its median near 1.1; the lowest 2% begin near 0.19. This is one part of the list.

Each molecule was assayed on NCI-H2228 parental (assay: cell viability relative to vehicle (fraction of vehicle); NCI-H2228 is an ALK-positive lung cancer line and DTP means drug-tolerant persister; higher = less growth inhibition). Conditions: 100 nM; treatment time 6 days.
Summary of the method: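 Each value is viability relative to vehicle-treated cells, measured as ATP with the CellTiter-Glo 3D Cell Viability Assay. Parental NCI-H2228 cells and drug-tolerant persisters (1000 nM targeted drug, 13 days) in 384-well plates received the 3114-agent TargetMol anti-cancer compound library at 100 nM, or DMSO, and were read 6 days later.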
Work on `COc1cc2nccc(Oc3ccc(NC(=O)Nc4ccc(F)cc4F)c(F)c3)c2cc1OC` yielded a cell viability of 1.08. `C[C@]12C=CC(=O)C=C1CC[C@@H]1[C@@H]2C(=O)C[C@@]2(C)[C@H]1CC[C@]2(O)C(=O)CO` [Prednisone] was tested, and the cell viability was 0.937. For `N#Cc1ccc(Cn2cncc2CN2CCN(c3cccc(Cl)c3)C(=O)C2)cc1`, the cell viability was 0.975. In the case of `c1ccc2c(Oc3nc(Nc4ccc(N5CCOCC5)cc4)c4ncn(C5CCCCC5)c4n3)cccc2c1` [Purmorphamine], the cell viability is reported as 1.06. For `CCN1C(=O)CNc2ncc(-c3ccc(-c4nc[nH]n4)nc3C)nc21`, the cell viability was 0.9. Work on `C[n+]1cccc(C(=O)[O-])c1` [Trigonelline hydrochloride] yielded a cell viability of 0.987. `COc1cc(C)c(/C=C/C(C)=C/C=C/C(C)=C/C(=O)O)c(C)c1C` [Acitretin] showed a cell viability of 1.11. Molecule `C[C@@H]1COCCN1c1cc(C2([S@](C)(=N)=O)CC2)nc(-c2cc[nH]c3nccc2-3)n1` has a cell viability of 1.09. Work on `COc1c(O[C@@H]2O[C@H](C(=O)O)[C@@H](O)[C@H](O)[C@H]2O)cc(O)c2c(=O)cc(-c3ccccc3)oc12` [Wogonoside] yielded a cell viability of 1.08. Work on `CC(C)(F)C[C@H](N[C@@H](c1ccc(-c2ccc(S(C)(=O)=O)cc2)cc1)C(F)(F)F)C(=O)NC1(C#N)CC1` [Odanacatib] yielded a cell viability of 0.99. With `CC(C)OC(=O)CCC/C=C\C[C@@H]1[C@@H](CC[C@@H](O)CCc2ccccc2)[C@H](O)C[C@@H]1O` [Latanoprost] the cell viability was 1.09. In the case of `COc1cc(/C=C/C(=O)O)ccc1O` [Ferulic Acid], the cell viability is reported as 1.03. With `COc1cc(/C=C/C(=O)O)ccc1O` [Sodium ferulic] the cell viability was 1.15. Work on `C[N+]1(C)CCC(=C(c2ccccc2)c2ccccc2)CC1` [Diphemanil mesylate] yielded a cell viability of 1.09. For `NS(=O)(=O)c1cc2c(cc1Cl)NCNS2(=O)=O` [Hydrochlorothiazide], the cell viability was 1.27. `O=C(NC1CCOCC1)c1ccc(-c2cc(-c3c[nH]nc3-c3ccccn3)ccn2)cc1` gave a cell viability of 1.01. For `O=C1C(=O)N(Cc2ccc(Cl)c(Cl)c2)c2ccccc21` [Apoptosis Activator 2], the cell viability was 1.13. In the case of `CN(C)CCc1c[nH]c2ccc(C[C@H]3COC(=O)N3)cc12` [Zolmitriptan], the cell viability is reported as 1.02. For `CN(C)CCC=C1c2ccccc2C=Cc2ccccc21` [Cyclobenzaprine hydrochloride], the cell viability was 1.4. In the case of `O=C1c2cccc(O)c2C(=O)c2c(O)cc(CO)cc21` [Aloe-emodin], the cell viability is reported as 1.3. With `O=c1[nH]c(=O)n([C@H]2C[C@H](O)[C@@H](CO)O2)cc1F` [Floxuridine] the cell viability was 0.197. `C/C(=N\NC(=S)N1CCC1)c1ccccn1` gave a cell viability of 0.136. In the case of `CC1=C(/C=C/C(C)=C/C=C/C(C)=C/C(=O)Nc2ccc(O)cc2)C(C)(C)CCC1` [Fenretinide], the cell viability is reported as 0.746. In the case of `NC(=O)c1ncn([C@@H]2O[C@H](CO)[C@@H](O)[C@H]2O)c1N` [AICAR (Acadesine)], the cell viability is reported as 1.4. `Nc1ncnc2c1ncn2[C@@H]1O[C@H](COP(=O)(O)O)[C@@H](O)[C@H]1O` [Adenosine 5'-monophosphate] gave a cell viability of 1.22. In the case of `O=C(O)c1cc(O)c2c(c1)[C@H]([C@H]1c3cc(C(=O)O)cc(O)c3C(=O)c3c(O[C@@H]4O[C@H](CO)[C@@H](O)[C@H](O)[C@H]4O)cccc31)c1cccc(O[C@@H]3O[C@H](CO)[C@@H](O)[C@H](O)[C@H]3O)c1C2=O` [Sennoside A], the cell viability is reported as 1.02. `CC(=O)Oc1cc(C(C)C)c(OCCN(C)C)cc1C` [Moxisylyte hydrochloride] showed a cell viability of 1.15. With `CC(c1cc2ccccc2s1)N(O)C(N)=O` (stereo not drawn) [Zileuton] the cell viability was 1.12. `C[C@@H]1C(=O)O[C@H]2C[C@@]34[C@H]5C[C@@H](C(C)(C)C)[C@]36[C@@H](OC(=O)[C@@H]6O)O[C@@]4(C(=O)O5)[C@]21O` [Ginkgolide A] was tested, and the cell viability was 1.1. In the case of `CC1=C(C(=O)OC2CCCCC2)C(c2ccc([N+](=O)[O-])cc2)C2=C(CC(C)(C)CC2=O)N1` (stereo not drawn), the cell viability is reported as 1.11. With `FC(F)(F)c1ccc(/C=C/c2nc(COc3ccc(CCCCn4ccnn4)cc3)co2)cc1` [Mubritinib] the cell viability was 0.811. Work on `Nc1ccn(C[C@@H](CO)OCP(=O)(O)O)c(=O)n1` [Cidofovir] yielded a cell viability of 1.17. For `O=C1c2c(O)cc(O)cc2OC(c2ccc(O)c(O)c2)C1O` (stereo not drawn) [Taxifolin], the cell viability was 1.08. `CN(C)CCCOc1nn(Cc2ccccc2)c2ccccc12` [Benzydamine hydrochloride] was tested, and the cell viability was 1.09. `CCc1nc(C(N)=O)c(Nc2ccc(N3CCC(N4CCN(C)CC4)CC3)c(OC)c2)nc1NC1CCOCC1` [Gilteritinib] showed a cell viability of 0.363. With `C#C[C@]1(O)CC[C@H]2[C@@H]3[C@H](C)CC4=C(CCC(=O)C4)[C@H]3CC[C@@]21C` [Tibolone] the cell viability was 0.945. For `CC(C)(C)c1cc(C(=O)C(C#N)=NNc2cccc(Cl)c2)no1`, the cell viability was 1.27. For `COc1ccc(CC(=O)Nc2nc3c(s2)CCc2ccccc2-3)cc1OC`, the cell viability was 1.14. Molecule `CC(=O)OCC(=O)[C@@]1(O)CC[C@H]2[C@@H]3CCC4=CC(=O)CC[C@]4(C)[C@H]3C(=O)C[C@@]21C` [Cortisone acetate] has a cell viability of 1.18. `CCOC(=O)N1CCC(NCCNC(=O)c2ccccc2C)CC1` was tested, and the cell viability was 1.1. `COc1cc2nc(N3CCN(C(=O)C4CCCO4)CC3)nc(N)c2cc1OC` (stereo not drawn) [Terazosin hydrochloride] gave a cell viability of 1.07. With `Nc1nccc(Oc2ccc3c(C(=O)Nc4cccc(C(F)(F)F)c4)cccc3c2)n1` the cell viability was 1.15. Work on `CN1CCN(c2cccc(Nc3nc4c(-c5ccc(S(C)(=O)=O)cc5)cccn4n3)c2)CC1` yielded a cell viability of 1.19. Work on `O=C(/C=C/c1ccc2ccc(C(F)(F)F)cc2n1)c1ccncc1` yielded a cell viability of 1.16. Molecule `CN(C)C/C=C/C(=O)Nc1ccc(C(=O)N2CCC[C@@H](Nc3ncc(Cl)c(-c4c[nH]c5ccccc45)n3)C2)cc1` has a cell viability of 0.931. `CN[C@@H](C)C(=O)N[C@H](C(=O)N1CCC[C@H]1C(=O)Nc1snnc1-c1ccccc1)C1CCCCC1` showed a cell viability of 1.01. `NC(=O)[C@@H]1CC[C@@H]2CN1C(=O)N2OS(=O)(=O)O` [Avibactam sodium] gave a cell viability of 0.907. With `COC(=O)[C@@H](N)Cc1cnc[nH]1` [Methyl L-histidinate dihydrochloride] the cell viability was 1.05.
